# Experimental data from PubChem BioAssay AID1745853 (National Center for Advancing Translational Sciences (NCATS), 2022).
# The other results are listed elsewhere or left out. Further columns of the screen follow, without active or inactive calls.
# Assays:
# Assay in all cases: Primary Screen for Target Class Profiling of Small Molecule Inhibitors of Methyltransferases
# [1] = molecular target: Glycine N-methyltransferase (Homo sapiens) (UniProt Q14749); details: purified enzyme, MTase-Glo SAH luminescence; measured here: GNMT inhibition; at 40 µM; stronger effect = lower value
# Outline: (§1)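 Each enzyme was assayed with SAM and its substrate. SAH formation detected by MTase-Glo luminescence; single-point 40 uM screen[…].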
# [2] = molecular target: Guanidinoacetate N-methyltransferase (Homo sapiens) (UniProt Q14353); details: purified enzyme, MTase-Glo SAH luminescence; measured here: GAMT inhibition; at 40 µM; stronger effect = lower value
# Outline: as §1
# [3] = molecular target: Histamine N-methyltransferase (Homo sapiens) (UniProt P50135); details: purified enzyme, MTase-Glo SAH luminescence; measured here: HNMT inhibition; at 40 µM; stronger effect = lower value
# Outline: as §1
# [4] = molecular target: Nicotinamide N-methyltransferase (Homo sapiens) (UniProt P40261); details: purified enzyme, MTase-Glo SAH luminescence; measured here: NNMT inhibition; at 40 µM; stronger effect = lower value
# Outline: as §1
# [5] = molecular target: Phenylethanolamine N-methyltransferase (Homo sapiens) (UniProt P11086); details: purified enzyme, MTase-Glo SAH luminescence; measured here: PNMT inhibition; at 40 µM; stronger effect = lower value
# Outline: as §1
# On the % scale 0 is the no-effect control and ±100 the full control effect.
Compound,"activity change, negative = inhibition [1]","activity change, negative = inhibition [2]","activity change, negative = inhibition [3]","activity change, negative = inhibition [4]","activity change, negative = inhibition [5]"
COc1ccc(CC(=O)N(C)C2CCc3ccccc3C2)cc1 (stereo not given),-8.16%,-7.07%,-4.83%,-18.7%,-10.1%
CN(C)c1cccc(-c2cnc(Nc3ccc(N4CCOCC4)cc3)c3c2CCO3)c1,-9.15%,-2.94%,-4.18%,-5.43%,-5.73%
O=C(NCCc1ccc(Cl)cc1)c1ccc2c(=O)nc3c(-c4ccccc4F)n[nH]n3c2c1,-16%,3.78%,0.493%,-3.66%,-3.27%
CCOc1ccc(CN2C(=O)c3cc4ccccc4n3CC2(C)C(=O)NCc2ccccc2)cc1OC (stereo not given),-9.91%,-0.423%,-6.92%,-12.4%,-9.74%
Cc1ccc(CNc2ncnc3ccc(-c4ccc(CO)o4)cc23)o1,-5.56%,-3.24%,5.14%,-19.9%,-14%
Cc1ccc(Cl)cc1NC(=O)c1nc[nH]c1C(=O)Nc1nc2ccccc2[nH]1,–,-3.25%,–,-19%,-7.01%
C/C(=C\CC[C@H](CO)[C@@H]1CC[C@]2(C)C3=C(CC[C@@]12C)[C@@]1(C)CCC(=O)C(C)(C)C1CC3)C(=O)O (stereo not given in full),0.425%,6.38%,6.13%,-13.8%,3.37%
CC(=O)N1CCN(C(=O)c2nc(N)nc3c2CCCC3)CC(O)C1 (stereo not given),1.77%,1.36%,2.74%,-3.5%,-0.161%
CCc1cc2c(cc3n2CC(C(=O)NC2CCCCCC2)(c2ccccc2)N(Cc2ccccc2)C3=O)s1 (stereo not given),-2.28%,1.92%,-6.15%,-3.09%,-8.54%
CCC(=O)N1CCc2ccc(C(=O)NC3CCCCC3)cc21,-11.7%,-9.13%,-9.13%,-12.6%,-14.9%
Cc1ccc(NS(=O)(=O)c2cc3[nH]c(=O)[nH]c3cc2C)cc1C,10.3%,0%,15.2%,-3.85%,-13.1%
O=C(Nc1cccnc1)N1CCC(Cc2cccc(Oc3ccc(C(F)(F)F)cn3)c2)CC1,1.52%,4.98%,7.75%,-23.2%,-4.08%
COc1ccc2cc3n(c2c1)CC(C)(C(=O)NC1CCCC1)N(c1ccc(Cl)cc1)C3=O (stereo not given),1.31%,0.146%,-1.96%,0.321%,-4.62%
O=C(Nc1ccc([N+](=O)[O-])cc1Cl)c1cc(Cl)ccc1O,-5.57%,1.82%,-0.537%,-8.56%,1.74%
CCCCN1C(=O)c2ccc(-c3ccccc3)n2CC1(C)C(=O)NC1CCCCCCC1 (stereo not given),-2.36%,-3.53%,2.71%,-5.69%,0.167%
Cc1cc2c(cc3n2CC(C)(C(=O)NC2CCCCCC2)N(Cc2ccccc2F)C3=O)o1 (stereo not given),0.352%,4.8%,-0.437%,-0.553%,-1.52%
O=C(O)CCc1nc(C2CCOCC2)n[nH]1,0.989%,2.6%,2.89%,-4.77%,-0.493%
COCCCNC(=O)c1cc2n(n1)CC(C)(C(=O)NC1CCCCCC1)N(C)C2=O (stereo not given),2.19%,3.13%,-0.571%,2.16%,1.72%
Cc1cccc(O[C@H]2COCCN(c3nc4ccccc4s3)C2)n1,-11.3%,1.11%,-1.31%,-37.6%,3.4%
CCCn1c(=O)c2cc(Cl)ccc2n2c(=O)n(CC(=O)c3ccc(OC)cc3)nc12,2.11%,4.87%,2.37%,1.15%,2.84%

Compound,"activity change, negative = inhibition [1]","activity change, negative = inhibition [2]","activity change, negative = inhibition [3]","activity change, negative = inhibition [4]","activity change, negative = inhibition [5]"
O[C@H]1[C@H](NCc2ccc(F)cc2)[C@H]2CO[C@H](O2)[C@@H]1N1CCC(Cc2ccccc2)CC1,-6.56%,-4.63%,-1.71%,-3.71%,12.2%
Cc1cc(C)nc(NS(=O)(=O)c2ccc(NC(=S)NC(=O)COc3ccc(Br)cc3Cl)cc2)n1,-17%,8.64%,3.18%,-32.3%,-9.77%
Cc1cnccc1NCCn1ccnc1-c1cc2n(n1)CCCNC2,-2.27%,-3.54%,-76.3%,-3.61%,-1.67%
Cc1ccc(NS(=O)(=O)c2cc3c(cc2C)n(C)c(=O)n3C)cc1,9.97%,0%,6.33%,-4.66%,2.68%
CCCNc1ccc2nncn2n1,-5.58%,-7.26%,-2.48%,-14.6%,8.79%
O=C(NCc1ccnc2[nH]ccc12)c1cc(F)ccc1Br,-8.54%,-7.97%,-13%,-16.8%,-7.59%
CCc1cc2c(cc3n2CC(C)(C(=O)NC2CCCCC2)N(c2cc(C)cc(C)c2)C3=O)s1 (stereo not given),-9.46%,-1.78%,-5.14%,2.26%,-5.64%
CCCn1c(=O)c2cc(F)ccc2n2c(SCC(=O)Nc3ccc(C)cc3C)nnc12,-5.28%,0%,-0.288%,1.38%,3.99%
CN1C(=O)c2cc(C(=O)NCc3cccc(Cl)c3)nn2CC1(C)C(=O)NCc1ccc(F)cc1 (stereo not given),3.2%,4.77%,6%,-1.81%,0.619%
C=C(C(=O)O)C1CC2=C(C)CCCC2(C)C[C@@H]1O (stereo not given in full),-1.14%,1.3%,7.17%,-11.6%,1.48%
COc1ccccc1CNC(=O)C1(C)Cn2cnc(C(=O)NCc3cccc(F)c3)c2C(=O)N1C1CC1 (stereo not given),3.58%,0%,2.63%,3.84%,0.945%
CNC(=O)c1cc(C2CC2)nc2onc(C3CCN(C(=O)C4CCCCC4)CC3)c12,-3.74%,0.045%,-0.613%,-6.68%,-4.01%
CNC(=O)[C@@H]1CN(S(=O)(=O)c2cccnc2)C[C@H]1C1CCN(C)CC1,0.296%,-0.539%,-4.45%,-0.586%,-0.434%
CCC[C@@H]1C[C@@H](C(=O)N[C@H](C(C)Cl)[C@H]2O[C@H](SC)[C@H](O)[C@@H](O)[C@H]2O)N(C)C1 (stereo not given in full),4.31%,–,9.2%,–,–
CN1CCC(c2c[nH]c3ccc(NC(=O)c4ccc(F)cc4)cc23)CC1,0.685%,6.08%,-61%,-8.11%,4.18%
COCCCNc1nc2c(S(=O)(=O)c3ccc(C(C)C)cc3)nnn2c2ccccc12,-6.58%,4.53%,-1.28%,-8.6%,-6.83%
CCCC(C)N1CC2(CCN(C(=O)c3ccc(C(C)=O)s3)CC2)OC1=O (stereo not given),-2.57%,-7.02%,-1.76%,-5.86%,-3.93%
O=C1COC2(CCN(S(=O)(=O)c3ccc(-c4ccc5cccnc5c4)cc3)CC2)CN1C1CC1,-19.5%,-4.44%,-2.16%,-30%,1.23%
Cc1ccc(CN2CCN(c3ncnc4onc(C)c34)CC2CCO)cc1 (stereo not given),-4.98%,-10.2%,-6%,-12.6%,-9.54%
CCCn1cnc2c1CN(C(=O)c1ccc(F)cc1)[C@H](C(=O)OC)C2,-4.85%,-3.98%,-2.54%,-7.38%,-1.83%

Compound,"activity change, negative = inhibition [1]","activity change, negative = inhibition [2]","activity change, negative = inhibition [3]","activity change, negative = inhibition [4]","activity change, negative = inhibition [5]"
O[C@@H]1C[C@@H](c2nc(Cc3ccc(F)cc3Cl)no2)N(Cc2ccc(OC(F)(F)F)cc2)C1,-11%,-7.58%,-3.42%,-20.1%,-10.2%
C[C@@H]1O[C@@H](O[C@@H]2[C@@H](O)[C@H](O[C@H]3[C@H](O[C@H]4CC[C@@]5(C)C(CC[C@]6(C)C5CC=C5[C@@H]7CC(C)(C)CC[C@]7(C(=O)O[C@@H]7O[C@H](CO)[C@@H](O)[C@H](O)[C@H]7O)CC[C@]56C)C4(C)C)O[C@H](C(=O)O)[C@@H](O)[C@@H]3O)OC[C@H]2O)[C@H](O)[C@H](O)[C@H]1O (stereo not given in full),4.73%,8.54%,6.48%,-5.81%,8.56%
C/C=C/CCC1Cc2cc(O)c(CCCC)c(O)c2C(=O)O1 (stereo not given),4.33%,-3.27%,11.1%,-18.2%,-7.67%
Cc1cc(C)cc(-c2ccc(CN3CCCC(N[S+](C)(=O)[O-])C3)cc2)c1 (stereo not given),-2.58%,0.972%,1.32%,-3.01%,-0.074%
CCOC(=O)c1cc2n(n1)CC(C)(C(=O)NC1CCCCC1)N(c1cc(Cl)ccc1C)C2=O (stereo not given),-1.3%,1.96%,-17.1%,-6.08%,-5.5%
Cc1cccc([C@H]2Nc3ccc(S(=O)(=O)Nc4cc(C)ccc4C)cc3[C@H]3C=CC[C@H]32)c1,-13.4%,-8.09%,-18.3%,-10.6%,-15.7%
C[C@@H]1O[C@@H](OC2C(O[C@H]3[C@H](O[C@H]4CC[C@@]5(C)C(CC[C@]6(C)C5CC=C5C7CC(C)(C)CC(O)[C@]7(C)CC[C@]56C)C4(C)C)O[C@H](C(=O)O)[C@@H](O)[C@@H]3O)OC(CO)C(O)C2O)[C@H](O)[C@H](O)[C@H]1O (stereo not given in full),3.49%,8.41%,9.34%,-19.5%,4.3%
CC(C)c1ccc(N2C(=O)c3cc4sccc4n3CC2(C)C(=O)NC2CCCCC2C)cc1 (stereo not given),1.39%,0.535%,3.02%,4.13%,-3.57%
Cc1cccc(-c2nn3c(c2-c2ccnc4ccc(C(N)=O)cc24)CCC3)n1,5.71%,4.47%,8.67%,-10.8%,3.89%
CC1(C(=O)NC2CCCCCCC2)Cn2c(cc3occc32)C(=O)N1C1CCCCCC1 (stereo not given),2.29%,0.942%,9.05%,-1.61%,1.11%
CCCC1c2ccc(C)n2CCN1C(=O)Nc1cc(Cl)ccc1C (stereo not given),6.23%,1.45%,-1.89%,9.75%,1.03%
COc1ccc(-c2n[nH]n3c2nc(=O)c2ccc(C(=O)NCc4ccccc4Cl)cc23)cc1,-8.35%,0%,6.08%,3.23%,0.06%
CC(C)Oc1ccc(CN2C(=O)c3cc(C4CC4)nn3CC2(C)C(=O)NC2CCCCCC2)cc1 (stereo not given),0.596%,5.06%,1.75%,-2.9%,1.15%
CC(=O)SCC(CC(=O)c1ccc(C)cc1)C(=O)O (stereo not given),-1.62%,7.03%,4.16%,-14.2%,-4.3%
CCOc1ccc(NC(=O)N2Cc3c(sc4c3CCCC4)-n3cccc3C2c2cc(F)cc(F)c2)cc1 (stereo not given),0.463%,0%,4.59%,-0.304%,5.11%
CCCCNC(=O)Cn1ccc2cc(S(=O)(=O)N3CCC(C)CC3)ccc21,1.79%,0.587%,0.673%,0.193%,0.374%
O=S(=O)(O)c1ccc(Nc2ncnc3c2ncn3[C@@H]2O[C@H](CO)[C@@H](O)[C@H]2O)cc1,1.84%,7.58%,13.8%,-4.2%,8.72%
Cc1cc2c(cc3n2CC(C)(C(=O)NC2CCCCCC2)N(c2ccc(Cl)cc2)C3=O)o1 (stereo not given),1.05%,3.32%,7.78%,4.23%,0.643%
